Source: the supplement of paper PMC7125110
± gives the standard error. Variants at the floor of the assay are shown more often than the library holds them.

B1: glmS ribozyme (parent)
chain: AUAAAAGCGCCAGAACUACAGAAAUGUAGUUGACGAGGAGGAGGUUUAUCGAAUUUUCGGCGGAUGCCUCCAAA

Assays:
Details in all cases: with glucosamine-6-phosphate
glucosamine-6-phosphate [1] = variants of: B1; assay: kcat; higher = faster cleavage; RNA array
Summary of the method: (§1)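 kcat and KM were obtained from weighted Michaelis–Menten fits across concentrations of kobs values. Those came from one- or two-exponential decay fits to per-tile medians normalised to baseline and to non-cleaving reference variants. The variants were barcoded ribozymes transcribed in situ by E. coli RNA polymerase on sequenced MiSeq chips and tracked through a hybridised Cy3 probe at 37 °C, with 40 μM to 10 mM glucosamine-6-phosphate in HEPES/KCl/Mg(OAc)2 buffer flowed in.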

glucosamine-6-phosphate [2] = variants of: B1; assay: self-cleavage kobs at 40 uM GlcN6P; higher = faster cleavage; RNA array
Summary of the method: as §1

glucosamine-6-phosphate [3] = variants of: B1; assay: self-cleavage kobs at 640 uM GlcN6P; higher = faster cleavage; RNA array
Summary of the method: as §1

glucosamine-6-phosphate [4] = variants of: B1; assay: self-cleavage kobs at 160 uM GlcN6P; higher = faster cleavage; RNA array
Summary of the method: as §1

glucosamine-6-phosphate [5] = variants of: B1; assay: self-cleavage kobs at 2500 uM GlcN6P; higher = faster cleavage; RNA array
Summary of the method: as §1

glucosamine-6-phosphate [6] = variants of: B1; assay: self-cleavage kobs at 10000 uM GlcN6P; higher = faster cleavage; RNA array
Summary of the method: as §1

| Variant | kcat (glucosamine-6-phosphate [1]) | self-cleavage kobs at 40 uM GlcN6P (glucosamine-6-phosphate [2]) | self-cleavage kobs at 640 uM GlcN6P (glucosamine-6-phosphate [3]) | self-cleavage kobs at 160 uM GlcN6P (glucosamine-6-phosphate [4]) | self-cleavage kobs at 2500 uM GlcN6P (glucosamine-6-phosphate [5]) | self-cleavage kobs at 10000 uM GlcN6P (glucosamine-6-phosphate [6]) |
| --- | --- | --- | --- | --- | --- | --- |
| G38U A39G | < 1e-05 s⁻¹ | < 1e-05 s⁻¹ | < 1e-05 s⁻¹ | < 1e-05 s⁻¹ |  |  |
| A15G G51U C70U | < 1e-05 s⁻¹ |  |  |  |  |  |
| C10G G59C U69G C70A | < 1e-05 s⁻¹ |  |  |  | < 1e-05 s⁻¹ | < 1e-05 s⁻¹ |
| A6G G43U C61G |  | < 1e-05 s⁻¹ |  |  | < 1e-05 s⁻¹ | < 1e-05 s⁻¹ |
| A6C A39C | < 1e-05 s⁻¹ |  |  | < 1e-05 s⁻¹ |  |  |
| C11A A12G G13A A15C C16U U17A A18C C19A A20G G21A | < 1e-05 s⁻¹ | < 1e-05 s⁻¹ |  |  |  |  |
| G29U G51A | < 1e-05 s⁻¹ |  |  |  |  |  |
| A6G G9U G41A A48G G59U |  | < 1e-05 s⁻¹ |  |  |  |  |
| A6U A12C A14G G41U G43A G63C |  | < 1e-05 s⁻¹ |  |  | < 1e-05 s⁻¹ |  |
| A33G | < 1e-05 s⁻¹ | < 1e-05 s⁻¹ |  |  |  | < 1e-05 s⁻¹ |
| U30C G38U | < 1e-05 s⁻¹ |  |  |  |  |  |
| G51U G60A | < 1e-05 s⁻¹ |  |  | < 1e-05 s⁻¹ |  | < 1e-05 s⁻¹ |
| G32A G63A | < 1e-05 s⁻¹ |  | < 1e-05 s⁻¹ |  |  |  |
| G38A A64U | < 1e-05 s⁻¹ |  |  |  |  | < 1e-05 s⁻¹ |
| G59C C71A | < 1e-05 s⁻¹ |  | < 1e-05 s⁻¹ |  |  |  |
| A36G G37A | < 1e-05 s⁻¹ | < 1e-05 s⁻¹ |  | < 1e-05 s⁻¹ |  |  |
| U56C G62A | < 1e-05 s⁻¹ | < 1e-05 s⁻¹ |  | < 1e-05 s⁻¹ |  | < 1e-05 s⁻¹ |
| G38A G62A | < 1e-05 s⁻¹ | < 1e-05 s⁻¹ | < 1e-05 s⁻¹ |  |  | < 1e-05 s⁻¹ |
| C58A G59U | < 1e-05 s⁻¹ |  |  | < 1e-05 s⁻¹ |  |  |
| A6G G13C U56G |  | < 1e-05 s⁻¹ |  |  |  | < 1e-05 s⁻¹ |
| A6G A15C C16U |  | < 1e-05 s⁻¹ |  |  |  | 4.37e-05 ± 1.5e-05 s⁻¹ |
| A6G G63U |  | < 1e-05 s⁻¹ | < 1e-05 s⁻¹ | < 1e-05 s⁻¹ |  | < 1e-05 s⁻¹ |
| G41C G51C | < 1e-05 s⁻¹ | < 1e-05 s⁻¹ |  |  |  | < 1e-05 s⁻¹ |
| U31C G38A | < 1e-05 s⁻¹ |  | < 1e-05 s⁻¹ |  | < 1e-05 s⁻¹ |  |
| A6G U47G |  | < 1e-05 s⁻¹ |  |  |  |  |
| A1C |  | 0.00111 ± 0.00028 s⁻¹ |  |  |  |  |
| A6G G32A G35U |  | < 1e-05 s⁻¹ |  |  |  | < 1e-05 s⁻¹ |

| Variant | kcat (glucosamine-6-phosphate [1]) | self-cleavage kobs at 40 uM GlcN6P (glucosamine-6-phosphate [2]) | self-cleavage kobs at 640 uM GlcN6P (glucosamine-6-phosphate [3]) | self-cleavage kobs at 160 uM GlcN6P (glucosamine-6-phosphate [4]) | self-cleavage kobs at 2500 uM GlcN6P (glucosamine-6-phosphate [5]) | self-cleavage kobs at 10000 uM GlcN6P (glucosamine-6-phosphate [6]) |
| --- | --- | --- | --- | --- | --- | --- |
| U47C G60A | < 1e-05 s⁻¹ | < 1e-05 s⁻¹ |  | < 1e-05 s⁻¹ | < 1e-05 s⁻¹ | < 1e-05 s⁻¹ |
| C34G C61A | < 1e-05 s⁻¹ |  |  | < 1e-05 s⁻¹ | < 1e-05 s⁻¹ | < 1e-05 s⁻¹ |
| A36U | < 1e-05 s⁻¹ |  |  |  |  | < 1e-05 s⁻¹ |
| A33C C34U | < 1e-05 s⁻¹ |  |  |  |  | < 1e-05 s⁻¹ |
| U30C A42U | < 1e-05 s⁻¹ |  |  |  |  | < 1e-05 s⁻¹ |
| G62C C70G | < 1e-05 s⁻¹ |  |  |  |  |  |
| A6U C61A | < 1e-05 s⁻¹ |  |  |  |  |  |
| A6G G38U G59U |  | < 1e-05 s⁻¹ |  |  |  |  |
| A6C C10U U31C U55G |  | < 1e-05 s⁻¹ |  |  |  | < 1e-05 s⁻¹ |
| G32A A36C | < 1e-05 s⁻¹ | < 1e-05 s⁻¹ |  |  |  |  |
| A6G U31A |  | < 1e-05 s⁻¹ |  |  |  |  |
| A6C G35A U56A |  | < 1e-05 s⁻¹ |  |  |  |  |
| A36C C61U | < 1e-05 s⁻¹ |  |  |  | < 1e-05 s⁻¹ | < 1e-05 s⁻¹ |
| G29C U55A C61U | < 1e-05 s⁻¹ |  | < 1e-05 s⁻¹ |  |  |  |
| A6G G29U C70A |  | < 1e-05 s⁻¹ |  |  |  | < 1e-05 s⁻¹ |
| A6U A15C A48U U69G |  | < 1e-05 s⁻¹ |  |  |  |  |
| A6C G51A U55G |  | < 1e-05 s⁻¹ |  |  |  |  |
| A6G G13A C16U U47A |  | < 1e-05 s⁻¹ |  |  |  | < 1e-05 s⁻¹ |
| U30C U65C | < 1e-05 s⁻¹ | < 1e-05 s⁻¹ | < 1e-05 s⁻¹ |  |  |  |
| G63A C70U | < 1e-05 s⁻¹ |  |  |  |  |  |
| C16A C61A | < 1e-05 s⁻¹ | < 1e-05 s⁻¹ |  |  |  |  |
| C68U C70A | < 1e-05 s⁻¹ | < 1e-05 s⁻¹ | < 1e-05 s⁻¹ |  |  | < 1e-05 s⁻¹ |
| C68U C70G | < 1e-05 s⁻¹ | < 1e-05 s⁻¹ |  | < 1e-05 s⁻¹ |  | < 1e-05 s⁻¹ |
| A64C C67U | < 1e-05 s⁻¹ | < 1e-05 s⁻¹ |  |  |  |  |
| C8A U69C | < 1e-05 s⁻¹ |  | < 1e-05 s⁻¹ |  | < 1e-05 s⁻¹ |  |
| A6C A33C |  | < 1e-05 s⁻¹ | < 1e-05 s⁻¹ | < 1e-05 s⁻¹ | < 1e-05 s⁻¹ | < 1e-05 s⁻¹ |
| G62U U65A | < 1e-05 s⁻¹ |  |  |  | < 1e-05 s⁻¹ | < 1e-05 s⁻¹ |
